# Among all 360,000 compounds or so, about 25,000 (6.9%) were called active. Inconclusive means that the source gave no clear call. Such entries were picked first, then a sample of the others. The call rests on the fitted dose curve; in most records, active means well fitted inhibition curve with a large enough effect; inconclusive means small, poorly fitted or top-dose-only effect; inactive means flat fitted curve, though single readings scatter. A potency beside an inconclusive call is a rough fit, not a confirmed value.
# Target: Luciferin 4-monooxygenase (Photinus pyralis) (UniProt P08659)
# Assay: qHTS profiling assay for firefly luciferase inhibitor/activator using purifed enzyme and Km concentrations of substrates (counterscreen for miR-21 project); further: nearly all actives have a fitted effect of over 55% in size
# Settings: purified FLuc, luminescence inhibition; series mostly up to 57.5 µM
# In short: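 Purified P. pyralis luciferase (10nM final) with 10uM D-luciferin and 10uM ATP (Km levels) in 50mM Tris acetate pH 7.5, 10mM Mg acetate, 0.01% Tween-20, 0.05% BSA; qHTS 6-point titration, ~60 µM downward; luminescence read.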
# Potency means the concentration at half of the fitted maximal effect; tags describe the fitted curve by direction and shape.
# Chain of UniProt P08659 (P08659 whole entry, looked up): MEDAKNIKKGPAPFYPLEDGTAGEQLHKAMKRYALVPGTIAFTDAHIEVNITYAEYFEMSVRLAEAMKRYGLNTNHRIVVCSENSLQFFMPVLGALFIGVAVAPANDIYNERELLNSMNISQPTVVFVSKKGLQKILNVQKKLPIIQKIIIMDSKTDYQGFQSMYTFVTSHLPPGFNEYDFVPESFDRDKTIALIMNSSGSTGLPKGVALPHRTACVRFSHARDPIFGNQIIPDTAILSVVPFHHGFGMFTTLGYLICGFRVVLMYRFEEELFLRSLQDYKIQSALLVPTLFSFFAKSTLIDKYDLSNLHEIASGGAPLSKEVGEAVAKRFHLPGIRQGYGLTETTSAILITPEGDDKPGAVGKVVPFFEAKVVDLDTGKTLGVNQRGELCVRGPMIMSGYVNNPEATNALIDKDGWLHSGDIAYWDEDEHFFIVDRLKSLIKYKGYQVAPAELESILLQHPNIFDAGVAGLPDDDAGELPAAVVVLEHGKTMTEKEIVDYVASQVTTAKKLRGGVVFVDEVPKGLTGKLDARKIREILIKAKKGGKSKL
row,SMILES,Potency
1,CC(C)=NOCC(=O)Nn1c(COc2ccccc2)nc2ccccc2c1=O,"inconclusive: 23.9 µM [inhibitor, single point]"
2,Cc1sc(/N=C/c2ccccc2O)c(C#N)c1C,"inconclusive: 0.953 µM [inhibitor, partial curve, poor fit]"
3,CCOc1cccc2cc(-c3csc(NC(=O)CCC(=O)N4CCC(C)CC4)n3)c(=O)oc12,inactive
4,Cc1nn(-c2ccc(F)cc2)c(C)c1CN1CCN(CCC(C)C)C(CCO)C1 (stereo unspecified),inactive
5,O=C(CSc1ccccc1)NN1C(=O)c2ccccc2C1=O,inactive
6,COc1ccc(NC(=O)c2oc3ccccc3c2NC(=O)C2CC2)cc1,"inconclusive: 30.1 µM [inhibitor, partial curve, poor fit]"
7,COc1ccc(CSc2ncnc3sccc23)cc1F,"inconclusive: 23.9 µM [inhibitor, partial curve, poor fit]"
8,O=C(CCc1nnc(C2CCCCC2)o1)N1CCN(Cc2ccccc2)CC1,inactive
9,NC(=O)c1ccc(NC(=O)C2CCCC2)cc1,inactive
10,CCOc1ccc(CNC(=O)C2CCCN(c3nn4cc(-c5ccc(OC)cc5)nc4s3)C2)cc1 (stereo unspecified),"inconclusive: 5.36 µM [inhibitor, partial curve, poor fit]"
11,CCc1ccccc1NC(=O)c1sc2nc(C)cc(C)c2c1N,"inconclusive: 37.9 µM [inhibitor, partial curve, poor fit]"
12,COC(=O)N/N=C\c1ccc(OC/C=C/c2ccccc2)cc1,"inconclusive: 26.9 µM [inhibitor, partial curve, poor fit]"
13,O=C(CNc1ccc(F)cc1)N/N=C1\CCCc2ccccc21,inactive
14,O=C(CCC(=O)n1ncc2ccccc21)N1CCCCC1,"inconclusive: 26.9 µM [inhibitor, single point]"
15,CC(C)CNC(=O)CCc1nc(-c2ccccc2)no1,"inconclusive: 23.9 µM [inhibitor, single point]"
16,C=CCS/C(N)=N\N=C\c1cc(Br)cc([N+](=O)[O-])c1O,"inconclusive: 26.9 µM [inhibitor, single point]"
17,Cc1ccc(-n2ncc3c(NCCCN(C)C)ncnc32)cc1Cl,active: 13.5 µM
18,Cc1ccccc1CNC(=O)C1CCCCN1S(=O)(=O)c1ccc(F)cc1 (stereo unspecified),inactive
19,CC1CCc2c(C(=O)Nc3cccc(-c4nn[nH]n4)c3)csc2C1 (stereo unspecified),active: 2.69 µM
20,Cc1ccc(-n2nc(C(=O)N(C)c3ccc(C)c(C)c3)c3c4ccccc4n(C)c3c2=O)cc1,inactive
21,COc1ccc(NC(=O)c2oc3ccccc3c2C)c(OC)c1,"inconclusive: 4.78 µM [inhibitor, partial curve, poor fit]"
